Assay results from the supplement of paper PMC7125110.
± gives the standard error. Variants at the floor of the assay are shown more often than the library holds them.

B1: glmS ribozyme (parent)
chain: AUAAAAGCGCCAGAACUACAGAAAUGUAGUUGACGAGGAGGAGGUUUAUCGAAUUUUCGGCGGAUGCCUCCAAA

Key:
Conditions in all cases: with glucosamine-6-phosphate
[1] = variants of: B1; test: self-cleavage kobs at 40 uM GlcN6P; higher = faster cleavage; RNA array
Summary of the method: (§1)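 Ribozyme variants carrying barcodes were transcribed in situ on sequenced MiSeq chips by E. coli RNA polymerase and tracked at 37 °C with a hybridised Cy3 probe. They were exposed to 40 μM to 10 mM glucosamine-6-phosphate in HEPES/KCl/Mg(OAc)2 buffer. kobs came from exponential decay fits of normalised per-tile medians, and kcat and KM from weighted Michaelis–Menten fits.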

[2] = variants of: B1; test: self-cleavage kobs at 640 uM GlcN6P; higher = faster cleavage; RNA array
Summary of the method: as §1

[3] = variants of: B1; test: self-cleavage kobs at 2500 uM GlcN6P; higher = faster cleavage; RNA array
Summary of the method: as §1

[4] = variants of: B1; test: self-cleavage kobs at 160 uM GlcN6P; higher = faster cleavage; RNA array
Summary of the method: as §1

[5] = variants of: B1; test: self-cleavage kobs at 10000 uM GlcN6P; higher = faster cleavage; RNA array
Summary of the method: as §1

Variant	self-cleavage kobs at 40 uM GlcN6P [1] [s⁻¹]	self-cleavage kobs at 640 uM GlcN6P [2] [s⁻¹]	self-cleavage kobs at 2500 uM GlcN6P [3] [s⁻¹]	self-cleavage kobs at 160 uM GlcN6P [4] [s⁻¹]	self-cleavage kobs at 10000 uM GlcN6P [5] [s⁻¹]
A39G U47G	0.000644 ± 0.0001	0.00207 ± 0.00049	0.0155 ± 0.0035		
A39G U55C	0.00123 ± 0.00015	0.0122 ± 0.0029		0.00406 ± 0.0011	0.0709 ± 0.018
A39U A42G U56G A64C	< 1e-05				4.69e-05 ± 1.8e-05
A39U G41U C67G	< 1e-05				
A39U G59C	< 1e-05	< 1e-05	< 1e-05	< 1e-05	< 1e-05
A39U U47A G51U C67U	< 1e-05				
A39U U55A	0.000396 ± 9.4e-05	0.00564 ± 0.001	0.0142 ± 0.0033	0.00146 ± 0.00024	0.0376 ± 0.0091
G40A A42G	0.000182 ± 2.4e-05	0.00157 ± 0.00024	0.00363 ± 0.00075	0.00046 ± 9.7e-05	0.00783 ± 0.0018
G40A A64U	< 1e-05	< 1e-05		< 1e-05	
G40A C58G	< 1e-05	< 1e-05		< 1e-05	
G40A C58U C70A	< 1e-05				
G40A C61A	< 1e-05	< 1e-05		< 1e-05	
G40A G41C C61G	< 1e-05	< 1e-05			
G40A G62U	< 1e-05	< 1e-05		< 1e-05	< 1e-05
G40A U47C G62A A64C C70U	< 1e-05		< 1e-05		< 1e-05
G40A U57A	< 1e-05		3.99e-05 ± 1.3e-05	< 1e-05	2.63e-05 ± 9.5e-06
G40C G43A	< 1e-05				< 1e-05
G40C G44C U55A C61A	< 1e-05		< 1e-05	< 1e-05	
G40C G60U	< 1e-05	< 1e-05		< 1e-05	< 1e-05
G40C U57A G62A	< 1e-05				< 1e-05
G40U C58U	< 1e-05				
G40U C61A G63C	< 1e-05		< 1e-05	< 1e-05	

Variant	self-cleavage kobs at 40 uM GlcN6P [1] [s⁻¹]	self-cleavage kobs at 640 uM GlcN6P [2] [s⁻¹]	self-cleavage kobs at 2500 uM GlcN6P [3] [s⁻¹]	self-cleavage kobs at 160 uM GlcN6P [4] [s⁻¹]	self-cleavage kobs at 10000 uM GlcN6P [5] [s⁻¹]
G40U G62A	< 1e-05	< 1e-05	< 1e-05	< 1e-05	< 1e-05
G40U U45G A48U G62U	< 1e-05				< 1e-05
G40U U49G G63C	< 1e-05				
G40U U56G G62C C67G	< 1e-05				
G40U U69A	< 1e-05				
G41A A42C A52G	< 1e-05				
G41A A48G G63C C70G	< 1e-05				
G41A A53G U55C C68A	< 1e-05				
G41A C50A G51U	< 1e-05			< 1e-05	
G41A C67G	< 1e-05			< 1e-05	
G41A G43U C68U	< 1e-05				
G41A G44A	< 1e-05		< 1e-05	< 1e-05	< 1e-05
G41A G59C	< 1e-05	< 1e-05	< 1e-05	< 1e-05	< 1e-05
G41A G62U U65G	< 1e-05				< 1e-05
G41A U46A	3.02e-05 ± 1.4e-05	0.000168 ± 4.6e-05	0.000531 ± 7.8e-05	4.5e-05 ± 1.2e-05	
G41A U69A	< 1e-05	< 1e-05			
G41C C61A	< 1e-05	< 1e-05	< 1e-05	< 1e-05	< 1e-05
G41C C68A	< 1e-05	< 1e-05	< 1e-05	< 1e-05	< 1e-05
G41C C68G	< 1e-05	< 1e-05		< 1e-05	
G41C G43U C70A	< 1e-05		< 1e-05		
G41C G44U	< 1e-05	< 1e-05	< 1e-05	< 1e-05	< 1e-05
G41U A42C	< 1e-05			< 1e-05	

Variant	self-cleavage kobs at 40 uM GlcN6P [1] [s⁻¹]	self-cleavage kobs at 640 uM GlcN6P [2] [s⁻¹]	self-cleavage kobs at 2500 uM GlcN6P [3] [s⁻¹]	self-cleavage kobs at 160 uM GlcN6P [4] [s⁻¹]	self-cleavage kobs at 10000 uM GlcN6P [5] [s⁻¹]
G41U A42U C50G	< 1e-05	< 1e-05			
G41U A48C	< 1e-05	< 1e-05		< 1e-05	
G41U A48G	< 1e-05	< 1e-05		< 1e-05	
G41U C50A G59A	< 1e-05				< 1e-05
G41U C58G	< 1e-05	< 1e-05	< 1e-05	< 1e-05	< 1e-05
G41U C61U	< 1e-05	< 1e-05	< 1e-05	< 1e-05	< 1e-05
G41U C70A	0.00288 ± 0.00022	0.0189 ± 0.0026		0.00721 ± 0.0009	
G41U G59C	< 1e-05	< 1e-05	< 1e-05	< 1e-05	< 1e-05
G41U G62A G63U	< 1e-05				< 1e-05
G41U G62C	< 1e-05	< 1e-05	< 1e-05	< 1e-05	< 1e-05
A42C A48G	< 1e-05	< 1e-05	< 1e-05	< 1e-05	< 1e-05
A42C C61G	< 1e-05	< 1e-05	< 1e-05	< 1e-05	
A42C C68A	< 1e-05	< 1e-05	< 1e-05	< 1e-05	< 1e-05
A42C C70A	< 1e-05	< 1e-05	< 1e-05	< 1e-05	< 1e-05
A42C G43C	< 1e-05	< 1e-05	< 1e-05	< 1e-05	
A42C G44A C68U	< 1e-05				< 1e-05
A42G A48G	< 1e-05				3.86e-05 ± 1.7e-05
A42G A52G U65G	< 1e-05		8.47e-05 ± 2.8e-05		0.000346 ± 8.1e-05
A42G A52U A53U U56A	< 1e-05				
A42G A53C	0.000286 ± 5.1e-05	0.00271 ± 0.00065	0.0112 ± 0.0032	0.000666 ± 0.00018	0.0076 ± 0.0015
A42G A64G	0.000694 ± 0.00014				
A42G C61U	< 1e-05	< 1e-05		< 1e-05	

Variant	self-cleavage kobs at 40 uM GlcN6P [1] [s⁻¹]	self-cleavage kobs at 640 uM GlcN6P [2] [s⁻¹]	self-cleavage kobs at 2500 uM GlcN6P [3] [s⁻¹]	self-cleavage kobs at 160 uM GlcN6P [4] [s⁻¹]	self-cleavage kobs at 10000 uM GlcN6P [5] [s⁻¹]
A42G C70A	4.72e-05 ± 8.8e-06	0.000154 ± 1.6e-05	0.000325 ± 3.7e-05	6.35e-05 ± 1.1e-05	
A42G U46G	0.000254 ± 6.6e-05	0.00167 ± 0.00038	0.0074 ± 0.0015	0.000694 ± 0.00017	0.0115 ± 0.0033
A42G U46G G59A	< 1e-05		< 1e-05		
A42G U47A	0.000848 ± 0.00018	0.00967 ± 0.0013	0.0269 ± 0.0085	0.00279 ± 0.0011	0.00752 ± 0.0028
A42G U47G	0.000293 ± 6.2e-05				
A42G U49C	< 1e-05	< 1e-05	< 1e-05	< 1e-05	< 1e-05
A42U A48G G60A	< 1e-05		< 1e-05		
A42U C58A	< 1e-05	< 1e-05		< 1e-05	
A42U G43A	< 1e-05	< 1e-05	< 1e-05	< 1e-05	< 1e-05
A42U G63C C70A	< 1e-05	< 1e-05			
G43A A64G	< 1e-05			< 1e-05	4.35e-05 ± 1.7e-05
G43A C50U	< 1e-05	< 1e-05	< 1e-05	< 1e-05	
G43A C61G	< 1e-05	< 1e-05	< 1e-05	< 1e-05	< 1e-05
G43A C67G C68G	5.46e-05 ± 1.7e-05	0.000155 ± 4.7e-05	6.83e-05 ± 1.7e-05		7.38e-05 ± 1.4e-05
G43A G59A	< 1e-05	< 1e-05	< 1e-05	< 1e-05	< 1e-05
G43A U56G	< 1e-05				3.58e-05 ± 9e-06
G43A U65G	< 1e-05	< 1e-05		< 1e-05	
G43A U69C C70G	< 1e-05				
G43C A48C	< 1e-05	< 1e-05	< 1e-05	< 1e-05	< 1e-05
G43C A52C	< 1e-05	< 1e-05			
